Data: paper PMC4336329 (PLoS ONE, 2015)
Among all 310,000 compounds or so, about 2,200 (0.71%) showed an effect of 50% or more. The effect is printed as a negative number. The list shows a part of the results.

biological target: human ether-à-go-go-related gene (hERG) potassium channel (human, UniProt Q12809); assay: primary screen, population patch clamp on CHO cells stably expressing hERG
Sequence (Q12809 whole entry, looked up): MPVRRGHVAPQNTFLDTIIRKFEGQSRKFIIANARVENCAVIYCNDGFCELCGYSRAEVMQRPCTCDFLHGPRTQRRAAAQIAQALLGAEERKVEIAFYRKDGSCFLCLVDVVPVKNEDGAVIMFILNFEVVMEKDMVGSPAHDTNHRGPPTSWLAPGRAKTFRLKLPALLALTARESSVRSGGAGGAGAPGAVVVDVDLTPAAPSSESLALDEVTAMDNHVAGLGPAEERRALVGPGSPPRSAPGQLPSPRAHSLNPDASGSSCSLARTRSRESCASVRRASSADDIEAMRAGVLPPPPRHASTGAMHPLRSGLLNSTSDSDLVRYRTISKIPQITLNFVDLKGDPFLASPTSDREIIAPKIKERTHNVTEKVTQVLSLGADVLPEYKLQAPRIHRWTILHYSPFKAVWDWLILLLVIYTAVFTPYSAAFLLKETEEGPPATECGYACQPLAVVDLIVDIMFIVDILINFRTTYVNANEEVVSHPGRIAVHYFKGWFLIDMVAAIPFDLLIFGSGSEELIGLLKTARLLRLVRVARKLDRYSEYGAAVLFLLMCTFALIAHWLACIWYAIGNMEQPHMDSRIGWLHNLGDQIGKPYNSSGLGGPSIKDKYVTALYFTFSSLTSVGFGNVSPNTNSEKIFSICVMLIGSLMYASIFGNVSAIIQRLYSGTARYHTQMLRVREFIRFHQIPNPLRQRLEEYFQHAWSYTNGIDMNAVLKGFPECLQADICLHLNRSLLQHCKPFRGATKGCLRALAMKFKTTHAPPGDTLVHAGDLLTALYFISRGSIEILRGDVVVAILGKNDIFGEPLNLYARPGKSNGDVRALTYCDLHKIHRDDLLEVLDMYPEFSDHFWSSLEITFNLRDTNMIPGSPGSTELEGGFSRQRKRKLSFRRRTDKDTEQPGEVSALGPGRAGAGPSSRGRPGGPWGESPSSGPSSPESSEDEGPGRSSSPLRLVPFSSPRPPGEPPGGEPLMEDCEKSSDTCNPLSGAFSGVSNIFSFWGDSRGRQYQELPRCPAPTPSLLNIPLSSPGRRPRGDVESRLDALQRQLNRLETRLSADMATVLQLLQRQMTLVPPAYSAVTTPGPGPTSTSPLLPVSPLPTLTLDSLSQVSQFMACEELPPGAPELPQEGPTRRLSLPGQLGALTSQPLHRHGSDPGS

Row | SMILES | hERG current change (%, negative = inhibition) at 1uM
1 | c1nnc2c3c4c(sc3ncn12)CCC4 | 5.83%
2 | COC(=O)C(O)(CC(=O)Nc1ccc(OC(F)(F)F)cc1)C(F)(F)F (stereo not shown) | 15.5%
3 | CC(=O)c1cccc(OCC(=O)Nc2cccc(C(=O)Nc3c(C)n(C)n(-c4ccccc4)c3=O)c2)c1 | 1.61%
4 | COc1cccc(C(=O)NC23CC4CC(CC(C4)C2)C3)c1 | 13.9%
5 | NC(=O)C(=O)NCCCN1CCOCC1 | 12.2%
6 | CCOC(=O)C1(Cc2cccc(Cl)c2)CCCN(C(=O)c2cc(C)[nH]n2)C1 (stereo not shown) | -7.02%
7 | CC1CCN(CCCOc2ccc(Cl)cc2Br)CC1 | -45%
8 | CCOc1ccc(S(=O)(=O)Nc2nc3ccccc3nc2-n2ccc(=NC(=O)c3ccccc3C)cc2)cc1 | 5.51%
9 | CCNc1nc(NC(C)C)nc(N(C#N)Cc2ccccc2)n1 | 3.4%
10 | CC1(C)CC(=O)CC2(C1)NCC(c1ccccc1Cl)c1c2[nH]c2ccccc12.Cl (stereo not shown) | -3.21%
11 | CCC(CO)Oc1cc(NCc2ccccc2Cl)c2ncn(C(C)C)c2c1 (stereo not shown) | 9.77%
12 | COc1cccc2[nH]c3c(N4CCCCC4)ncnc3c12 | -10.6%
13 | COc1ccc(/C=N/NC(C)(C)C)c(OC)c1.Cl | 6.88%
14 | Cc1ccc2cc(CN(Cc3ccc4c(c3)OCO4)Cc3nnnn3Cc3ccco3)c(=O)[nH]c2c1 | 5.45%
15 | CCOc1ccc(OCC)c(NC(=O)CSc2nnnn2CC)c1 | 0.711%
16 | Nc1ccccc1C#CCCCCO | 7.71%
17 | O=C(Nc1ccc(Br)cc1)C1CCN(c2cnccn2)CC1 | 10.5%
18 | O=C1NC(=O)c2cc(NC(=O)C3CCCO3)ccc21 (stereo not shown) | -9.27%
19 | O=C(O)c1ccc(Oc2c(C(F)(F)F)oc3cc(O)ccc3c2=O)cc1 | 15.9%
20 | Cc1ccc(C2(C)CC(C)(C)N(C(=O)CSc3nnc(C)s3)c3ccccc32)cc1 (stereo not shown) | 10.3%
21 | COc1cc(C(=O)OC2C[C@H]3CC[C@@H](C2)N3)ccc1O (stereo partly shown) | 7.14%
22 | CC(=O)N(c1cccc(C)c1)S(=O)(=O)c1ccc(Cl)cc1 | 44.5%
23 | Cc1ccccc1OCCn1cnc2cc([N+](=O)[O-])ccc2c1=O | 9.4%
24 | O=C(C[n+]1cccc(CNC(=O)c2ccc(OC(F)F)cc2)c1)Nc1cc(C(F)(F)F)ccc1Cl.[Cl-] | 10.2%
25 | CCNc1nc2[nH]c(=O)c3c(c2s1)OC(N)=C(C#N)C3c1cccs1 (stereo not shown) | 5.46%
